Data taken from the supplement of paper PMC9334596.
“And” between values parts separate entries of the source, which are not always exact repeats. Identical values can stand only once. Over roughly 5,300 compounds, “PER2::LUC luminescence relative to vehicle control” has its median near 0.96; the highest 2% begin near 1.3. The list shows a part of the results.

System: mPer2Luc MEF
Assay: PER2::LUC luminescence relative to vehicle control (fold of vehicle); higher = higher PER2::LUC reporter signal
Conditions: 10 µM
Summary of the method: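 The value is PER2::LUC luminescence expressed as fold of vehicle control. Mouse embryonic fibroblasts carrying the mPer2Luc reporter were seeded at ~3000 cells per well in 384-well plates and grown in DMEM with 10% FBS at 37 °C and 5% CO2. Compounds from commercial libraries were added at 10 μM 48 h after seeding, and luminescence was read with the ONE-Glo luciferase assay system 24 h and 30 h after treatment, followed by an alamarBlue viability assay.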

Row | Structure (SMILES) | PER2::LUC luminescence (time after treatment 24 h) | PER2::LUC luminescence (time after treatment 30 h)
1 | C[C@H]1CC[C@@H]2[C@@H](C)[C@H]3[C@H](C[C@H]4[C@@H]5CC[C@H]6C[C@@H](O)CC[C@]6(C)[C@H]5CC[C@]34C)N2C1 | 0.968 | 0.992
2 | COc1ccc(N(C(=O)Oc2c(C)cccc2C)c2ccnc(Nc3ccc(N4CCN(C)CC4)cc3)n2)c(OC)c1 | 0.916 | 0.896
3 | COC1=C[C@@H]2[C@@H]3Cc4ccc(OC)c(O)c4[C@]2(CCN3C)CC1=O | 0.821 | 0.885
4 | CCOC(=O)C1C(C=C(C)C)C1(C)C (configuration not stated) | 1.05 | 1.02
5 | O=[N+]([O-])C(Br)(CO)CO | 1.02 and 0.437 | 0.921 and 0.421
6 | C=CCN1CC[C@@]2(C)c3cc(O)ccc3C[C@@H]1C2C (single isomer, unassigned; (+)) | 0.969 | 0.939
7 | NC1=NC(=O)C(c2ccccc2)O1 (configuration not stated) | 0.947 | 0.983
8 | CCOC(=O)C1(c2ccccc2)CCN(CCC(C#N)(c2ccccc2)c2ccccc2)CC1 | 1.03 | 0.922
9 | CC[C@@H]1C=CC=CC[C@H](C)[C@@H](O)[C@@H](C)C(=O)[C@H](C)[C@@H](O)[C@H](C)C(=O)[C@H](C)[C@@H](O)[C@H](C)C=CC(=O)O[C@H]2[C@@H](C)[C@@H](CC1)O[C@@]1(CC[C@@H](C)[C@@H](C[C@H](C)O)O1)[C@@H]2C | 1.18 | 1.09
10 | CN(C)CCc1ccc(O)cc1 | 1.05 | 1
11 | CC(=O)[C@H]1CC[C@H]2[C@@H]3CC[C@H]4C[C@](C)(O)CC[C@]4(C)[C@H]3CC[C@]12C | 1.01 | 0.851
12 | O=C1C=CC(=O)c2ccccc21 | 1.03 | 1.05
13 | CN1[C@@H]2C[C@@H](OC(=O)[C@H](CO)c3ccccc3)C[C@H]1[C@@H]1O[C@@H]12 | 0.968 and 0.842 | 0.922 and 0.825
14 | C[C@@H]1O[C@@H](O[C@H]2CC[C@]3(C=O)[C@H]4CC[C@]5(C)[C@@H](C6=CC(=O)OC6)CC[C@]5(O)[C@@H]4CC[C@]3(O)C2)[C@H](O)[C@H](O)[C@H]1O | 1.03 | 1.03
15 | CC(C)(O)[C@H]1O[C@H]2CC[C@@]3(C)[C@@](O)(CC[C@H]4Cc5c([nH]c6ccccc56)[C@@]43C)C2=CC1=O | 0.859 | 0.814
16 | CC1(C)C2CC(=O)[C@]3(C)C(CC[C@@]4(C)[C@H](c5ccoc5)OC(=O)C5OC543)[C@@]2(C)[C@@H](O)C[C@H]1O (some centres not stated) | 0.973 | 0.944
